# In PubChem BioAssay AID488969 (Vanderbilt High Throughput Screening Facility, 2010):
# The full ranking holds about 110,000 compounds; the median of “z-score” is about -0.1, and the highest 2% start at about 2. The list shows a part of the results. Active and inactive are the calls of the source.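 How the source made its calls: active means z-score in the third read window above 3 or below -3; inactive means the rest.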
# Target: Metabotropic glutamate receptor 8 (Rattus norvegicus) (UniProt P70579)
# Chain of UniProt P70579 (P70579 whole entry, looked up): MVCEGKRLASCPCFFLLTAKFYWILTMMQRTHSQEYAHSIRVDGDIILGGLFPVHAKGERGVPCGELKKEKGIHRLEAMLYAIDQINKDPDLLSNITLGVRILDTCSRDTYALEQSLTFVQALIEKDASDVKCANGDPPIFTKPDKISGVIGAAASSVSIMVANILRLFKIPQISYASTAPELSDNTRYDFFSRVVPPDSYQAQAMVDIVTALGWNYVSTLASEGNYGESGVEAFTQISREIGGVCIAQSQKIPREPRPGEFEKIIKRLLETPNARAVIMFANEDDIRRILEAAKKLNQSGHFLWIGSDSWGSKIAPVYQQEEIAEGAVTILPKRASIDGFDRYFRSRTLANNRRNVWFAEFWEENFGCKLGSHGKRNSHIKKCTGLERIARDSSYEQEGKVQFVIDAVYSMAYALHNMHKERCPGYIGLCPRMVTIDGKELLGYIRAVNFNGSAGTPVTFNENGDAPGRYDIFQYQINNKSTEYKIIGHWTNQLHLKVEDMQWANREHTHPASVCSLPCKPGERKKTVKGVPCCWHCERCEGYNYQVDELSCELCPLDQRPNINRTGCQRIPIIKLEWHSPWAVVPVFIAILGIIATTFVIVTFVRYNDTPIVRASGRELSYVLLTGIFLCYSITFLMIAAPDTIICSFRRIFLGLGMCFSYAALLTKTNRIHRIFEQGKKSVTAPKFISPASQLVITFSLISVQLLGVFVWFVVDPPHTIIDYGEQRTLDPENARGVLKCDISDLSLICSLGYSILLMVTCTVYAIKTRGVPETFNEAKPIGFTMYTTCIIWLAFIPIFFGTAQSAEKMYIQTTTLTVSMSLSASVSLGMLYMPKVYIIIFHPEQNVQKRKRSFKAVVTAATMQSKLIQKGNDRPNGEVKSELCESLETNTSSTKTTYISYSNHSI
# Experiment: rat mGluR8 modulators via GIRK flux, primary screen, cell-based, thallium flux, HTS (AID 488969)
# Conditions: HEK293 rat mGluR8, GIRK (G protein-gated inwardly rectifying potassium channel) thallium flux, FluoZin2; at 10 µM; stronger effect = higher value; submaximal glutamate (EC20) added with thallium
row,Compound,z-score
1,COc1cc(OC)cc(-c2nnc(SCC(=O)N3CCOCC3)o2)c1,0.337
2,Cc1sc2nc(C(C)Nc3ccccc3N3CCOCC3)[nH]c(=O)c2c1C (stereo not given),-0.62
3,COc1ccc(C)cc1S(=O)(=O)N(CC(=O)NCc1ccc(Cl)cc1)Cc1ccccc1,-0.0694
4,CC(=O)Nc1ccc(C(=O)OCc2ccccc2Cl)cc1,0.177
5,CC1(C)Cc2c(c(N3CCOCC3)nc3sc4c(NN)ncnc4c23)CS1,-0.194
6,O=C(O)CC(C(=O)N(c1ccccc1)c1ccccc1)N1CCOCC1 (stereo not given),-0.293
7,Cn1c(SCc2ccccc2)nnc1-c1ccncc1,-0.0565
8,COc1ccccc1/C=C/C(=O)NC(=S)NC(C)C,0.776
9,CC1(C)Cc2nc3sc4c(N(CCO)CCO)ncnc4c3cc2CO1,-0.312
10,O=C(NC(=S)Nc1ccccc1N1CCOCC1)c1cccs1,active: 4.28
11,CCC1CCCCN1C(=O)CSc1nnc(CNC(=O)c2cc(OC)c(OC)c(OC)c2)o1 (stereo not given),-0.544
12,Cn1cc(C(=O)c2ccccc2)cc1-c1nc2ccccc2n1C,-0.215
13,COc1ccc2c(c1)C1(Nc3ccccc3-c3nc4ccccc4n31)C(=O)N2C (stereo not given),-0.0719
14,Cc1ccccc1-c1ccc(C=Nc2c(C)n(C)n(-c3ccccc3)c2=O)o1,-0.297
15,CCN1C(=O)C(O)(C2COC(C)(C)CC2=O)c2cc(Br)ccc21 (stereo not given),0.195
16,O=C(CSc1nnc(COc2ccccc2)n1-c1ccccc1)c1ccccc1,0.529
17,O=C(NC1=NCCS1)c1cccc(S(=O)(=O)N2CCCCC2)c1,-0.16
18,O=C(Oc1ccc(Cl)cc1N1C(=O)CCC1=O)c1ccco1,-0.348
19,CCCCOCC1CN(c2ccccc2)C(=O)CS1 (stereo not given),0.197
20,CCc1ccc2c(c1)C(c1ccc([N+](=O)[O-])cc1)=NNC(c1ccccc1)=N2,-0.173
21,CN1CC=C2C(C#N)=C(N)C(C#N)(C#N)C(Cc3ccccc3)C2C1 (stereo not given),-0.155
22,CNC(=S)N/N=C(\C)c1ccc(C(C)(C)C)cc1,2.03
23,CN(C)CCNC(=O)NC1CCCCC1,0.481
24,O=C(NCc1cccnc1)c1ccc(S(=O)(=O)N2CCCCC2)cc1,-0.0436

row,Compound,z-score
1,N#Cc1ncc(-c2ccc3c(c2)OCCOCCOCCOCCOCCO3)nc1C#N,-0.26
2,CCC1(C)Cc2c(sc3nnn(CC(=O)Nc4ccccc4)c(=O)c23)CO1 (stereo not given),-0.58
3,CC1CCN(c2ccccc2NC(=S)NC(=O)c2ccc(-c3cccc([N+](=O)[O-])c3)o2)CC1,0.191
4,Cc1ccc(S(=O)(=O)Cc2ccc(C(=O)N3CCN(c4cc(C)ccc4C)CC3)o2)cc1,-0.0666
5,CC(C)(C)c1nn2cnnc2n(/N=C/c2ccccc2)c1=O,-0.108
6,COc1ccccc1Nc1nc(-c2sc(NC(=O)CC(C)C)nc2C)cs1,-0.0722
7,O=C1CC(SC(=Nc2ccccc2)Nc2ccccc2)C(=O)N1c1cccc2ccccc12 (stereo not given),0.381
8,Cc1c([N+](=O)[O-])c([N+](=O)[O-])nn1CC(=O)NCCc1ccccc1,-0.129
9,CCN(C(=O)c1coc(=O)c2ccccc12)c1cc(OC)ccc1OC,-0.298
10,COc1cccc(S(=O)(=O)NCc2ccc(C(=O)Nc3ccc(Cl)cc3)cc2)c1,-0.235
11,CC(C)CNS(=O)(=O)c1cc(C(=O)N2CCOCC2)c(Cl)cc1Cl,-0.135
12,Cc1ccc(C(C)C)c(OCC(O)CN2CC(C)OC(C)C2)c1 (stereo not given),0.11
13,COC(=O)/C(=C\Nc1ccc(Cl)c2ccccc12)c1ncc(C(F)(F)F)cc1Cl,-0.121
14,Cc1ccc(S(=O)(=O)NCCSc2nnc(N)s2)cc1,-0.295
15,CCOC(=O)C1=C(C)N(C)C(C)=C(C(=O)OCC)C1c1cccnc1,-0.0865
16,COc1ccccc1CNc1ccc(N2CCOCC2)c(C(=O)O)c1,0.805
17,Cc1ccc(OCCCCn2ccnc2)c(Cl)c1,0.882
18,CCCC1C2C(=O)N(c3ccccc3OCC)C(=O)C2ON1c1ccccc1 (stereo not given),0.107
19,CCN=c1scc(-c2ccco2)n1/N=C/c1ccc(OC)c(O)c1,0.709
20,COc1ccccc1CN1C(=O)c2cccc3cccc(c23)C1=O,-0.251
21,CCOC(=O)c1cnn(-c2cc(Oc3cccc(C)c3)ncn2)c1N,-0.381
22,CC(C)(C)c1ccc(S(=O)(=O)NCCc2ccncc2)cc1,0.0957
23,CCNC(=O)CCS(=O)(=O)c1ccc2ccccc2c1,0.0954
24,CC(C)(C)NC(=O)C(c1ccncc1)N(C(=O)Cn1nnc(-c2cccs2)n1)C1CCCCC1 (stereo not given),-0.081

row,Compound,z-score
1,CCN(CC)CCn1c(=S)[nH]c2ccc(Cl)cc2c1=O,1.01
2,Cc1nc2ccccc2n1C(=O)N1CCOCC1,0.0113
3,Cc1cc(C)n(-c2ccc(C(=O)OC(C)C)cc2)n1,0.075
4,Oc1ccc(C2C(c3ccccc3)=NN=C(c3ccc(Cl)cc3)N2O)c(O)c1 (stereo not given),-0.173
5,COc1ccc(N2CCN(c3ncccn3)CC2)cc1,-0.0553
6,O=[N+]([O-])c1ccc(-c2nnc(-c3ccccc3)c(N3CCOCC3)n2)cc1,0.0632
7,Cc1ccc(S(=O)(=O)N(C)CC(=O)OCC(=O)NC(=O)Nc2ccc3c(c2)OCCO3)cc1,-0.391
8,Nc1cnc(-c2ccccc2)nc1Cl,-0.315
9,CCOC(=O)C1=C(C)OC(N)=C(C#N)C1c1ccc(O)c(OC)c1 (stereo not given),-0.941
10,CCOC(=O)c1c(C)c(C(=O)NCC2CCCO2)c(C)n1C (stereo not given),-0.262
11,CCC(CC)C1C(C#N)=C(N)SC(N)=C1C#N,-0.0721
12,COc1cc2c(cc1OC)C(C)N(C(=O)c1cc3n(n1)C(C(F)(F)F)CC(c1ccco1)N3)CC2 (stereo not given),-1.45
13,O=C(OCC(=O)N1CCCc2ccccc21)c1cccc(S(=O)(=O)N2CCc3ccccc32)c1,0.996
14,Cc1cc2cc(CNS(=O)(=O)c3ccc4ccccc4c3)ccc2n1C,-0.135
15,CN1C(=O)Cc2cc(S(=O)(=O)N3CCOCC3)ccc21,0.00719
16,Cn1c(CO)cnc1SCc1ccc(Cl)cc1,-0.181
17,CCOc1ccc2nc(SCC(=O)Nc3ncccn3)[nH]c2c1,-0.491
18,Cc1cc(NCc2ccccc2)nc(-c2ccccc2O)n1,-0.572
19,CC1(C)C(=O)OC(c2cccs2)C2(CCCCC2)C1=O (stereo not given),0.489
20,CN(C)S(=O)(=O)c1ccc(N2CCCC2=O)c([N+](=O)[O-])c1,-0.369
21,CCOC(=O)c1ccc(NC(=O)c2ccccc2N(C)S(=O)(=O)c2ccccc2)cc1,-0.254
22,Cc1cc(C)c(C(=O)c2ccc(C(=O)N(C(C)C)C(C)C)cc2)c(C)c1,-0.0179
